The whole screen tested about 310,000 compounds, of which about 14,000 (4.5%) showed an effect of 50% or more. The effect is printed as a negative number. Some of the results follow.
What follows are compounds tested against human ether-à-go-go-related gene (hERG) potassium channel (human, UniProt Q12809) (assay: primary screen, population patch clamp on CHO cells stably expressing hERG).
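Note: peak tail current of the secondary pulse compared with the same well before compound.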

Sequence of human ether-à-go-go-related gene (hERG) potassium channel (Q12809 whole entry, looked up): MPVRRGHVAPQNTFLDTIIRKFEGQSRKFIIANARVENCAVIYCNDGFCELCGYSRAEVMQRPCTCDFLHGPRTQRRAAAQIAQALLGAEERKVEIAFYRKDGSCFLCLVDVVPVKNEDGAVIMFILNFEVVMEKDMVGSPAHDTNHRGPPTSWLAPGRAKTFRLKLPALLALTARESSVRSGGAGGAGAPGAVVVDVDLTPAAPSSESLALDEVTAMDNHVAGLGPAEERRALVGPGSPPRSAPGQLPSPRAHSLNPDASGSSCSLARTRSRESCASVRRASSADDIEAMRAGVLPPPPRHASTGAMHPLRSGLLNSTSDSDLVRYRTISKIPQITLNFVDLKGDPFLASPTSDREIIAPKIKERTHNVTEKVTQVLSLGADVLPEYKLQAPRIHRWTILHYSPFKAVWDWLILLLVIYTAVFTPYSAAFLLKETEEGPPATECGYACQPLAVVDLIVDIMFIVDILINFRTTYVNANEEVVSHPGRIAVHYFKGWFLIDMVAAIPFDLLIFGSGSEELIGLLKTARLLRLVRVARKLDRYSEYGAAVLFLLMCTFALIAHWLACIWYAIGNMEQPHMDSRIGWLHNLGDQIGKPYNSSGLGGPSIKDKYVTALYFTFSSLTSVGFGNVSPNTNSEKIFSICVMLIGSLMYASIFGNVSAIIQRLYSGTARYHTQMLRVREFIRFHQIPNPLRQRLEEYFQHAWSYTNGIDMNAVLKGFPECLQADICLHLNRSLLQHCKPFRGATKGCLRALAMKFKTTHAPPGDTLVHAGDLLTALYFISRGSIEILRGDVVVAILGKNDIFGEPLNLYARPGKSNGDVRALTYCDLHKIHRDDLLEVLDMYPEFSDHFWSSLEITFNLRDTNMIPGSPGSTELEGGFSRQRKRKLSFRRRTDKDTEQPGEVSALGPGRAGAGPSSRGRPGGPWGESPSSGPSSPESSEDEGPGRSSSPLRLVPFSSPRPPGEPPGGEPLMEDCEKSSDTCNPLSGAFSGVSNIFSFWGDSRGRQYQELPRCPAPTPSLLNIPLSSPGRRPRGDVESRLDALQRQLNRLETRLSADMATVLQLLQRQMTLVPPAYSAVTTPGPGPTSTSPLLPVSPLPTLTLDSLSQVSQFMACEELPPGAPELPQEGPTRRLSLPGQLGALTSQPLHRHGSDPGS

| SMILES | hERG current change (%, negative = inhibition) at 10uM [%] |
| --- | --- |
| Cc1ccccc1C(=O)Nc1ccc(O)cc1C(=O)O | 32.1 |
| Cc1ccc(S(=O)(=O)NC(=O)COc2ccccc2C)cc1 | 17 |
| COCCNC(=O)c1cccc(OC2CCN(Cc3ccc(F)c(OC)c3)CC2)c1 | -16.2 |
| COc1cccc(CNC(=O)CCC2CCCN(C(=O)C3CCOCC3)C2)c1 (stereo not drawn) | 1.51 |
| O=C(NCc1ccccn1)C1CCCN(Cc2cnn(-c3ccccc3)c2-n2cccc2)C1 (stereo not drawn) | -24.5 |
| Cc1nn2cnnc2c(C)c1Cc1c(F)cccc1Cl | -13.4 |
| CN(CC(=O)Nc1ccc(Cl)cc1)C(=O)CCNC(=O)c1ccc(Cl)cc1 | -67.7 |
| Cc1onc(-c2c(Cl)cccc2Cl)c1C(=O)Nc1nc(C(C)(C)C)cs1 | -26.4 |
| O=C(Cn1c(=O)n(Cc2ccc3c(c2)OCO3)c(=O)c2ccccc21)N1CCCc2ccccc21 | 4.46 |
| CC(OC(=O)CCC(=O)c1ccc(F)cc1)C(=O)NC1CCCCC1C (stereo not drawn) | 8.71 |
| C/C(C=O)=C/c1ccccc1 | 16.5 |
| Cc1ccc(-c2cc(C(F)F)n3ncc(C(=O)Nc4c(C)nn(Cc5ccccc5Cl)c4C)c3n2)cc1 | 9.8 |
| Cc1c(C)c2ccc(OCC(=O)N[C@@H](Cc3c[nH]c4ccccc34)C(=O)O)cc2oc1=O | -1.71 |
| COc1ccc(/C=N/N2CCOCC2)cc1Cn1cc([N+](=O)[O-])cn1 | 1.52 |
| O=C(NCCSCc1ccccc1)c1ccc(Cl)c(S(=O)(=O)N2CCOCC2)c1 | -50 |
| Cc1c(-n2c(=S)[nH]c3ccccc3c2=O)c(=O)n(-c2ccccc2)n1C | 16.7 |
| COc1ccc(Cn2c(O)c(C=Nc3ccc(C)cc3)c3ccccc3c2=O)cc1 | 2.35 |
| COc1ccc(COc2cc(-c3cccc(OC)c3)nc3ccc(NC(C)=O)cc23)cc1 | 4.89 |
| CCc1noc(C)c1C(=O)Nc1ccc(C#N)cc1 | 7.65 |
| O=C(CN1C(=O)NC(Cc2c[nH]c3ccccc23)C1=O)NCCc1ccccc1 (stereo not drawn) | 4.6 |
| CC12CCC(c3nnc(SCc4ccc(Cl)cc4)nc31)C2(C)C (stereo not drawn) | -6.48 |
| COc1ccc(C(=O)N/C(=C/c2cccs2)C(=O)NN)cc1OC | 13.7 |
| CC(=O)Nc1ccccc1OCc1nnc(-c2cccs2)o1 | 4.35 |

| SMILES | hERG current change (%, negative = inhibition) at 10uM [%] |
| --- | --- |
| CN1CCN(CCC2Oc3cc([N+](=O)[O-])ccc3NC2=O)CC1 (stereo not drawn) | -11.3 |
| COc1cc(NC(=O)c2ccc(N)nc2)cc(C(=O)Nc2cccc(C(F)(F)F)c2)c1 | -5.66 |
| CSc1ccccc1C(=O)C1CCCN(Cc2ccncc2)C1 (stereo not drawn) | -41.7 |
| CNC(=S)N/N=C/c1c(C)nn(-c2ccc(F)cc2)c1Cl | 16.5 |
| CCCCN1C(=S)NC[C@@H]1Cc1ccccc1 | -11.8 |
| O=C(Cc1ccc(Cl)c(Cl)c1)NNC(=S)NCC1CCCO1 (stereo not drawn) | 0.91 |
| COc1ccc(CC(=O)O/N=C(\N)c2ccccn2)cc1OC | 10.2 |
| O=C1OC(NCc2cccnc2)(c2ccc(Cl)cc2)c2ccccc21 (stereo not drawn) | 10.4 |
| COc1cc(/C=C(\C#N)C(=O)NC(C)C)cc(Cl)c1O | 6.48 |
| Cc1c(Cl)cccc1NC(=S)N(C)CCC#N | 28.5 |
| O=C(c1cc2ccccc2oc1=O)N(Cc1ccccc1F)C1CCS(=O)(=O)C1 (stereo not drawn) | -7.73 |
| O=[N+]([O-])c1ccc2nc(NS(=O)(=O)c3ccc(F)cc3)sc2c1 | 31.5 |
| Cc1ccc(N(CC(=O)NCCSc2ccccn2)S(=O)(=O)c2ccc(F)cc2)cc1 | -30.3 |
| CCOC(=O)c1c(N)sc(C(=O)N2CCCC2)c1C | 12.3 |
| CCSc1nnc(NC(=O)[C@H](C)NC(=O)c2ccccc2Cl)s1 | 18.8 |
| Cc1ccc(S(=O)(=O)N2CCCCC2)cc1C(=O)NCCCN1CCOCC1 | 16.7 |
| c1ccc2c(c1)Sc1ccccc1-n1cnnc1-2 | -20.3 |
| O=S(=O)(NCCCc1ccccc1)c1ccccc1 | 10.3 |
| Cc1ccc(NC(=O)CSc2nc3ccccc3nc2N2CCOCC2)c(C)c1 | 5.64 |
| CN(CCO)CC(O)Cn1cnc2c1c(=O)n(C)c(=O)n2C.O=C(O)c1cccnc1 (stereo not drawn) | 19.7 |
| CCc1nn2c(=O)cc(COc3ccc(/C=C4\C(=N)N5N=C(CC(C)C)SC5=NC4=O)cc3)nc2s1 | -7.34 |
| CCNC(=S)NNC(=O)c1cc(C)on1 | 7.53 |
| COc1ccc(C(=O)C2CCCN(C(=O)c3cc(C(C)C)no3)C2)cc1F (stereo not drawn) | -56.9 |

| SMILES | hERG current change (%, negative = inhibition) at 10uM [%] |
| --- | --- |
| COc1ccccc1N1C(=O)C2CC(C)=C(C)CC2C1=O (stereo not drawn) | 5 |
| CC1CN(C(=O)COc2ncnc3ccccc23)CC(C)O1 (stereo not drawn) | 24.6 |
| CCn1c(O)c(C=NCCN2CCOCC2)c(=O)[nH]c1=S | 3.42 |
| O=C(Nc1ccc2c(c1)OCCO2)c1ccc2nccnc2c1 | 3.73 |
| CCN(CC)S(=O)(=O)c1cccc(C(=O)N[C@H](C(=O)O)C(C)C)c1 | 7.81 |
| CC(C)CN(C(=O)CSc1nc(-c2ccccc2)cn1N)c1c(N)n(Cc2ccccc2)c(=O)[nH]c1=O | 7.38 |
| CCn1c(SCC(=O)N2CCOCC2)nc2sc3c(c2c1=O)CCCC3 | -5.19 |
| Cc1cccc(NC(=O)CSc2nc3ccc(NC(=O)CSc4nnnn4-c4ccccc4)cc3s2)c1C | 4.63 |
| O=C(Nc1ccc(Cl)cc1Cl)Nn1cnnc1 | 0.0491 |
| CN(C)CCOC(=O)NC12CC3CC(CC(C3)C1)C2.Cl | -6.31 |
| N#CCC(=O)N/N=C/c1cc(Br)ccc1OCc1cccc2ccccc12 | 14.7 |
| C=CCOc1ccnc(-c2ccccc2)n1 | 10.2 |
| CC(=O)OC1c2ccccc2C(=O)N1c1ccccc1C (stereo not drawn) | -5.3 |
| CCOC(=O)c1ccc(N2CCOCC2)c(NC(=O)c2ccc3c(c2)OCO3)c1 | -1.01 |
| CCOC(=O)C1=C(C)NC2=C(C(=O)CCC2)C1c1coc2ccccc2c1=O (stereo not drawn) | 8 |
| COc1cccc(-c2nc(C(=O)NCCCN3CCOCC3)cc3c2[nH]c2ccccc23)c1 | -65.3 |
| CN(c1ccccc1)S(=O)(=O)c1ccc(C(=O)NCC(c2ccco2)N2CCCCC2)cc1 (stereo not drawn) | -12.1 |
| O=C(NC1CC1)C(Cl)c1ccccc1 (stereo not drawn) | 5.39 |
| CN(CC(=O)Nc1ccc(Cl)cc1)C(=O)CNC(=O)c1ccc(Br)o1 | -2.85 |
| O=C(Cn1ncc2c(=O)oc3ccccc3c21)N1CCc2ccccc2C1 | -5.56 |
| CCCCCc1c(O)c2ccccc2[nH]c1=O | 7.97 |
| O=C(OCC(=O)N1CCC(Cc2ccccc2)CC1)c1ccccc1F | -9.43 |
| C[n+]1c(-c2ccccc2)sc2ccccc21.[O-][Cl+3]([O-])([O-])[O-] | 23.1 |

| SMILES | hERG current change (%, negative = inhibition) at 10uM [%] |
| --- | --- |
| CC1(C)CC(=O)C=C(N2CCOCC2)C1 | 15.6 |
| CCSc1ncnc2c1sc1nc(-c3ccco3)c3c(c12)CC(C)(C)OC3 | 11.8 |
| CC1CC1C(=O)OCC(=O)NC(=O)NC12CC3CC(CC(C3)C1)C2 (stereo not drawn) | -1.94 |
| O=C(c1ccc(S(=O)(=O)N2CCCC2)cc1)N1CCN(Cc2ccc3c(c2)OCO3)CC1 | -28 |
| CCCCN1CCN=C1Nc1ccccc1 | 15.2 |
| Cl.Nc1n[nH]c(-c2ccc(F)cc2)n1 | -12.2 |
| Cc1nc2ccccc2c(=O)n1/N=C/c1ccccc1 | -0.523 |
| Cn1c(=O)oc2cc(S(=O)(=O)N3CCC(C(=O)NCC4COc5ccccc5O4)CC3)ccc21 (stereo not drawn) | 6.65 |
| COc1ccc(CN2CCNC(=O)C2CC(=O)NCC(C)(C)N2CCOCC2)cc1C (stereo not drawn) | 20 |
| Cc1ccc(N/N=C/c2ccncc2)cc1.Cl | 4.03 |
| CCOc1ccc(-c2c(=O)n(OCc3ccc([N+](=O)[O-])cc3)c3ccccc3[n+]2[O-])c(OCC)c1 | 1.61 |
| CN1CCN(C2=C(NS(=O)(=O)c3ccccc3)C(=O)c3ccccc3C2=O)CC1 | 2.75 |
| COC(=O)c1ccccc1S(=O)(=O)N1CCC(C(=O)NCC2CCCO2)CC1 (stereo not drawn) | 16.1 |
| COc1ccc(-c2noc(N3CCC(C(=O)Nc4cccc(OC)c4)CC3)n2)cc1 | 9.57 |
| COCCCNc1nc2ccccc2nc1NS(=O)(=O)c1ccc(Cl)cc1 | 2.14 |
| O=C(O)c1ccccc1C(=O)Nc1nc(-c2ccccc2)cs1 | -23.6 |
| O=C(C1CCCC1)N1CCCC(Nc2ccc(F)cc2)C1 (stereo not drawn) | -37.2 |
| CCN1CCN(CCC(=O)Nc2ccccc2OC)CC1 | -11.2 |
| COc1ccc(C=C2c3ccccc3C(=O)c3ccccc32)c(OC)c1 | 16.1 |
| O=C(NNC(=O)c1ccc[nH]1)Nc1cc(Cl)cc(Cl)c1 | 9.88 |
| C/C(=C\C(=O)c1ccc(Br)cc1)Nc1cccc(Cl)c1 | 12.2 |
